Test results reported in the supplement of paper PMC3334620.
In all, about 33,000 sequences were measured (“E-score (-0.5 to 0.5)”: median about -0.017, highest 2% from about 0.3 on). The list shows a part of the results.

Target: T1, Sut1 (UniProt P53032)
T1 sequence: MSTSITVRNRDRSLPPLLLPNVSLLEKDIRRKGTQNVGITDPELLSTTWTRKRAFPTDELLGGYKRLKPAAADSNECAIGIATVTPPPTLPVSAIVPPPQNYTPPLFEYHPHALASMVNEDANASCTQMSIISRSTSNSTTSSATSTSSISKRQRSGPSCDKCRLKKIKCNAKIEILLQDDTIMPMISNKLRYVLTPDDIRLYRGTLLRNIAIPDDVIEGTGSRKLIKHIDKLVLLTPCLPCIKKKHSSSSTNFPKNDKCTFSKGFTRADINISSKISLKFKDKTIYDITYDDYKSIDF
Experiment: PBM E-score (8-mer binding enrichment) (E-score (-0.5 to 0.5)); higher = stronger / more preferred TF binding; most listed sequences are background and not binding sites
Details: protein concentration: 200 nM; construct: GST-full length
In short: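 GST-tagged yeast TFs (full-length or DNA-binding domain) were made by PURExpress in vitro transcription/translation and applied at about 100-200 nM to universal all-10-mer Agilent arrays. The arrays were made double-stranded by primer extension, on fresh or once-stripped slides. Bound protein was detected with fluorescent anti-GST, and scans were normalised with masliner. Each ungapped eight-base word, pooled with its reverse complement, received an E-score (modified Wilcoxon-Mann-Whitney statistic) from the Universal PBM Analysis Suite.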

Sequence	PBM E-score
CGAACCAA	0.18
CCCGCGAG	0.145
AAAATCAC	0.208
CAGTTCCA	0.0534
CACACTGC	-0.0537
AGTCCTAT	0.0983
TCCCAACA	-0.137
CGCTCAAG	0.00438
CCTCAACA	0.0434
ACCCAGTC	-0.0505
CGAAGCAA	-0.00172
CTTAAAGC	-0.0652
CCACTGGA	-0.208
ATCCTGAG	-0.115
ATGTGCCA	-0.19
AATTACAG	0.231
CCTATCCC	-0.155
CCAAAATC	0.0968
AGACGCCC	-0.112
GCGCCACA	-0.143
AAATTTTA	0.125
AACGTGAT	0.00721
CCGATTGA	0.0928
CCATGGCG	-0.0784
AAAATGCA	0.105

Sequence	PBM E-score
AACTCAGA	-0.0208
CCTTTCCG	0.107
CTTCACGC	-0.0405
ATCCACTA	0.125
CTCCCGAA	-0.0868
CACAGTGC	-0.0432
CAACATGA	-0.0165
CAGCTAAA	-0.0567
GGGGAGAC	-0.137
AACGTATT	0.15
AGCAGTAT	0.0384
GCATATCA	0.0997
GCCTTTCC	-0.00454
GGAAACCC	0.0463
AAACCAAT	0.255
GCGTTAAA	0.156
CCTTTTAA	0.0855
CTGCGATA	-0.188
AAGAGCCA	0.00997
GACACATC	-0.102
GACACTCC	0.314
CCAGGAGC	-0.273
GGGATGTA	-0.00772
AAGAGACC	-0.0189
ATCCAATG	-0.0391

Sequence	PBM E-score
CTCATGGA	0.0158
GGGGAAAC	0.0917
ACGACCGA	-0.1
GTATTGAC	-0.13
TAGAGGCA	-0.263
GTTTCTCA	0.0308
AACTGGTG	-0.161
AAGCTGGA	-0.137
CACCATCA	-0.182
CAATCGAA	0.147
CAAGCCCA	-0.299
GATATAGC	0.0508
TAAAGGGA	0.0848
AGATACGG	0.216
GTATTTTA	0.168
GTCTAGGA	-0.2
ACCTGTGA	-0.00623
AGGTGTGG	-0.0561
AGATGGCG	0.0779
ATCATTCG	0.0989
TACCAGCA	-0.147
CACCATAA	0.0736
GGGAGCAC	-0.089
ATCGCGAG	-0.0459
AGTAGCAG	-0.112

Sequence	PBM E-score
GATTGTAC	-0.0282
CCAATACA	0.0323
GAAGTTAC	0.136
ATAAGTCA	0.181
TCTGAGAA	-0.00752
ACTTATAA	0.246
CAAGCCCG	0.147
AAACGTGT	-0.0932
ATAAAGAG	0.0458
GACGGCCA	-0.0576
GCGCCGTA	-0.0811
CACTGATG	-0.158
TCATGAGA	-0.0174
CATGACGA	-0.0559
CAAAGGAG	0.0319
ACGGTACA	0.0433
ATCCCGTC	0.00947
CAGTCCTC	-0.169
AAGGGGGT	-0.314
AATGGTCG	-0.193
CCCTGCCC	-0.41
GCTTTGTA	0.0438
ATTGCATG	0.142
CAAGCCGC	-0.2
ACTTTGAG	-0.104

Sequence	PBM E-score
AACGATCC	-0.0436
AGTAAATG	0.203
ACATGTGC	-0.028
CGGGTCGA	-0.13
CCTACCGA	-0.184
AAAGGGTG	-0.102
GATGCTGC	-0.107
ACGGATTG	0.0185
CTAGAGAC	-0.0895
AACTACCG	0.0903
CTCGGAAG	0.174
GACCTCTC	0.0599
GATAAACC	-0.114
GGGGTTGA	0.0885
AACATCGT	-0.104
CGTTGGCA	-0.0897
AATTACTC	0.289
CGCAATCC	-0.0614
GTTAGGCA	-0.146
ACTGTCAG	-0.137
ACCGTGTG	-0.101
GAGGTCTA	-0.16
ACTCCTTC	-0.106
ACCCCTCT	-0.21
AGCTAGAG	-0.103

Sequence	PBM E-score
CGGCTTTC	0.0641
CTGAAAAC	0.142
CGGTGTAC	-0.0056
CATAAATA	0.168
GAGGTATC	-0.132
TCGAACGA	-0.0715
ATACTGAC	0.13
CCAAATAG	0.0306
CCGGCTAC	0.0198
AGACTGTC	-0.14
ACGTGGAG	-0.159
CCCACGAG	-0.242
CTTGCCTC	-0.0816
CCTCTTCG	-0.0989
ATGCCCTA	-0.169
AACGAGCC	-0.214
AGGACTCC	0.129
AGCTTGCC	-0.22
CGCCCCAC	-0.273
AGTATATA	0.395
GCGATGGA	0.0891
CCACTAGA	-0.183
ACCACCTA	-0.202
ATCCCTAG	-0.19
ACGCGGTC	-0.014

Sequence	PBM E-score
CACTGAAC	0.014
CTGACGCC	-0.143
CTGCCCCC	-0.396
AAAGGTAG	-0.0863
ACGCAACC	-0.0591
AGCTCATG	-0.206
CTCTAAAG	-0.0246
ACTCATAA	0.0777
GCATTGCA	-0.0106
AAGGGCAC	-0.218
CGGAGTCC	0.486
CGCGGCTA	-0.125
AACGGTGA	-0.141
AATACAAT	0.262
ATCCGTTC	0.147
CACGACGA	-0.194
CAAATTAA	0.189
ATGAGATC	0.0501
CAAAACGA	0.174
AAGTGGAG	0.044
AATCATGC	-0.0725
CTCAAGCA	-0.121
